Assay results published in the supplement of paper PMC4604168 (melanoma cell lines).
The other results are listed elsewhere or left out. Many values rest on one well or one pass, so single values are uncertain.

Test system: SkMel30
Assay: cell count relative to DMSO control; melanoma cells; higher = more viable cells
Conditions: library dose: low library concentration; 72 h
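Further: cell number obtained by counting DAPI-stained nuclei in high-throughput microscope images with image analysis software, screen run in 1,536-well plates.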

SMILES	cell count [%]
Cc1cc(Nc2cc(N3CCN(C)CC3)nc(/C=C/c3ccccc3)n2)n[nH]1 + OCCn1cc(-c2cnc3nnn(Cc4ccc5ncccc5c4)c3n2)cn1 [PF04217903] (first compound 0.04 µM, partner dose 1 µM)	113
CC(C)C[C@H](NC(=O)[C@H](Cc1ccccc1)NC(=O)c1cnccn1)B(O)O [Bortezomib] + NCC(=O)Nc1ccc(-n2nc(C(F)(F)F)cc2-c2ccc3c(ccc4ccccc43)c2)cc1 [OSU03012] (first compound 0.001 µM, partner dose 1 µM)	54.5
Cn1c(=O)n(-c2ccc(C(C)(C)C#N)cc2)c2c3cc(-c4cnc5ccccc5c4)ccc3ncc21 + COc1cc(Nc2ncc(F)c(Nc3ccc4c(n3)NC(=O)C(C)(C)O4)n2)cc(OC)c1OC [Tamatinib] (first compound 0.004 µM, partner dose 0.4 µM)	85.3
COc1ccc(C2=N[C@@H](c3ccc(Cl)cc3)[C@@H](c3ccc(Cl)cc3)N2C(=O)N2CCNC(=O)C2)c(OC(C)C)c1 [Nutlin-3] + CCN(CC)CCCCNc1ncc2cc(-c3cc(OC)cc(OC)c3)c(NC(=O)NC(C)(C)C)nc2n1 [PD173074] (first compound 0.1 µM, partner dose 0.1 µM)	93.3
CC(C)C[C@H](NC(=O)[C@H](Cc1ccccc1)NC(=O)c1cnccn1)B(O)O [Bortezomib] + CN(C)S(=O)(=O)c1ccc2c(c1)/C(=C/c1cc3c([nH]1)CCCC3)C(=O)N2 [SU6656] (first compound 0.001 µM, partner dose 0.4 µM)	124
Cc1cn(-c2cc(NC(=O)c3ccc(C)c(Nc4nccc(-c5cccnc5)n4)c3)cc(C(F)(F)F)c2)cn1 [nilotinib] + COc1ccc(COc2ccc(Cc3cnc(N)nc3N)cc2OC)cc1 [GW2580] (first compound 0.2 µM, partner dose 1 µM)	85.6
CC(C)C[C@H](NC(=O)[C@H](Cc1ccccc1)NC(=O)c1cnccn1)B(O)O [Bortezomib] + Oc1cc(-c2nc(-c3ccccc3)[nH]c2-c2ccncc2)ccc1Cl [L779450] (first compound 0.001 µM, partner dose 0.2 µM)	90.4
CC(C)C[C@H](NC(=O)[C@H](Cc1ccccc1)NC(=O)c1cnccn1)B(O)O [Bortezomib] + Cc1cc(N2CCOCC2)cc2[nH]c(-c3c(NC[C@@H](O)c4cccc(Cl)c4)cc[nH]c3=O)nc12 [BMS536924] (first compound 0.001 µM, partner dose 0.2 µM)	74.7
Cn1c(=O)n(-c2ccc(C(C)(C)C#N)cc2)c2c3cc(-c4cnc5ccccc5c4)ccc3ncc21 + COc1cc2c(Oc3ccc4[nH]c(C)cc4c3F)ncnc2cc1OCCCN1CCCC1 [cediranib] (first compound 0.004 µM, partner dose 0.4 µM)	105
Cc1cn(-c2cc(NC(=O)c3ccc(C)c(Nc4nccc(-c5cccnc5)n4)c3)cc(C(F)(F)F)c2)cn1 [nilotinib] + O=C1NC(=O)/C(=C/c2ccc(-c3ccc(F)cc3O)o2)S1 [AS252424] (first compound 0.2 µM, partner dose 1 µM)	89.1
CC(C)C[C@H](NC(=O)[C@H](Cc1ccccc1)NC(=O)c1cnccn1)B(O)O [Bortezomib] + Cn1cc(/C=C2\C(=O)Nc3cccnc32)c2ccccc21 [GW441756] (first compound 0.001 µM, partner dose 0.4 µM)	57.8
Cc1cc(Nc2cc(N3CCN(C)CC3)nc(/C=C/c3ccccc3)n2)n[nH]1 + COc1ccc(COc2ccc(Cc3cnc(N)nc3N)cc2OC)cc1 [GW2580] (first compound 0.04 µM, partner dose 1 µM)	95.9
Cc1cn(-c2cc(NC(=O)c3ccc(C)c(Nc4nccc(-c5cccnc5)n4)c3)cc(C(F)(F)F)c2)cn1 [nilotinib] + COc1cc(N2CCC(N3CCN(C)CC3)CC2)ccc1Nc1ncc(Cl)c(Nc2ccccc2S(=O)(=O)C(C)C)n1 [NVP-TAE684] (first compound 0.2 µM, partner dose 0.08 µM)	69.7
CC(C)C[C@H](NC(=O)[C@H](Cc1ccccc1)NC(=O)c1cnccn1)B(O)O [Bortezomib] + O=C1NC(=O)/C(=C/c2ccc(-c3ccc(F)cc3O)o2)S1 [AS252424] (first compound 0.001 µM, partner dose 1 µM)	85.5
